These are yes or no findings as the source states them, for the method shown. Binding seen in cells or lysates may run through a third protein. Some results given as binding are weak or reduced against the parent protein; the word gives no strength. Where a sequence is shown, tags or fusion partners need not be part of it.
T1: Sfp1-TAP fusion protein (S. cerevisiae (endogenous locus in yeast cells)) (UniProt P32432)
T1 sequence: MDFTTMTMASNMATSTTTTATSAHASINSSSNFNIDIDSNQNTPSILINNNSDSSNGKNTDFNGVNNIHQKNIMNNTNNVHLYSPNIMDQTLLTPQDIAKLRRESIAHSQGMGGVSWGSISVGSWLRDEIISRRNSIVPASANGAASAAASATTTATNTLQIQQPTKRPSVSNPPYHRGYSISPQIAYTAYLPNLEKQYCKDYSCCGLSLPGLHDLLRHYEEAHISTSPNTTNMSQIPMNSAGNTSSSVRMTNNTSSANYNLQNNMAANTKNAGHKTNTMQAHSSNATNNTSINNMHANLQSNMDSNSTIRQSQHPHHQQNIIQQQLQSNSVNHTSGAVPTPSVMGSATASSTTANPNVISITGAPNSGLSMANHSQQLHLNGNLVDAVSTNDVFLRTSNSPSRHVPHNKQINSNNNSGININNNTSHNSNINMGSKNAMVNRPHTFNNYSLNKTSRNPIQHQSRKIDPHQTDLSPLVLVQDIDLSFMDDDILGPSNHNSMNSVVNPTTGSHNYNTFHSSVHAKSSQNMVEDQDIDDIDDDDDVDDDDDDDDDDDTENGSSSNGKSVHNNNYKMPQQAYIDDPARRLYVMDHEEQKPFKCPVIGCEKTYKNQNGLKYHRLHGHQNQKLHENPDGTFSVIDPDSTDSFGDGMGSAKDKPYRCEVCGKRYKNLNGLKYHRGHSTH

Amino acid sequences for entries named in this document (tags omitted).
UniProt P38811: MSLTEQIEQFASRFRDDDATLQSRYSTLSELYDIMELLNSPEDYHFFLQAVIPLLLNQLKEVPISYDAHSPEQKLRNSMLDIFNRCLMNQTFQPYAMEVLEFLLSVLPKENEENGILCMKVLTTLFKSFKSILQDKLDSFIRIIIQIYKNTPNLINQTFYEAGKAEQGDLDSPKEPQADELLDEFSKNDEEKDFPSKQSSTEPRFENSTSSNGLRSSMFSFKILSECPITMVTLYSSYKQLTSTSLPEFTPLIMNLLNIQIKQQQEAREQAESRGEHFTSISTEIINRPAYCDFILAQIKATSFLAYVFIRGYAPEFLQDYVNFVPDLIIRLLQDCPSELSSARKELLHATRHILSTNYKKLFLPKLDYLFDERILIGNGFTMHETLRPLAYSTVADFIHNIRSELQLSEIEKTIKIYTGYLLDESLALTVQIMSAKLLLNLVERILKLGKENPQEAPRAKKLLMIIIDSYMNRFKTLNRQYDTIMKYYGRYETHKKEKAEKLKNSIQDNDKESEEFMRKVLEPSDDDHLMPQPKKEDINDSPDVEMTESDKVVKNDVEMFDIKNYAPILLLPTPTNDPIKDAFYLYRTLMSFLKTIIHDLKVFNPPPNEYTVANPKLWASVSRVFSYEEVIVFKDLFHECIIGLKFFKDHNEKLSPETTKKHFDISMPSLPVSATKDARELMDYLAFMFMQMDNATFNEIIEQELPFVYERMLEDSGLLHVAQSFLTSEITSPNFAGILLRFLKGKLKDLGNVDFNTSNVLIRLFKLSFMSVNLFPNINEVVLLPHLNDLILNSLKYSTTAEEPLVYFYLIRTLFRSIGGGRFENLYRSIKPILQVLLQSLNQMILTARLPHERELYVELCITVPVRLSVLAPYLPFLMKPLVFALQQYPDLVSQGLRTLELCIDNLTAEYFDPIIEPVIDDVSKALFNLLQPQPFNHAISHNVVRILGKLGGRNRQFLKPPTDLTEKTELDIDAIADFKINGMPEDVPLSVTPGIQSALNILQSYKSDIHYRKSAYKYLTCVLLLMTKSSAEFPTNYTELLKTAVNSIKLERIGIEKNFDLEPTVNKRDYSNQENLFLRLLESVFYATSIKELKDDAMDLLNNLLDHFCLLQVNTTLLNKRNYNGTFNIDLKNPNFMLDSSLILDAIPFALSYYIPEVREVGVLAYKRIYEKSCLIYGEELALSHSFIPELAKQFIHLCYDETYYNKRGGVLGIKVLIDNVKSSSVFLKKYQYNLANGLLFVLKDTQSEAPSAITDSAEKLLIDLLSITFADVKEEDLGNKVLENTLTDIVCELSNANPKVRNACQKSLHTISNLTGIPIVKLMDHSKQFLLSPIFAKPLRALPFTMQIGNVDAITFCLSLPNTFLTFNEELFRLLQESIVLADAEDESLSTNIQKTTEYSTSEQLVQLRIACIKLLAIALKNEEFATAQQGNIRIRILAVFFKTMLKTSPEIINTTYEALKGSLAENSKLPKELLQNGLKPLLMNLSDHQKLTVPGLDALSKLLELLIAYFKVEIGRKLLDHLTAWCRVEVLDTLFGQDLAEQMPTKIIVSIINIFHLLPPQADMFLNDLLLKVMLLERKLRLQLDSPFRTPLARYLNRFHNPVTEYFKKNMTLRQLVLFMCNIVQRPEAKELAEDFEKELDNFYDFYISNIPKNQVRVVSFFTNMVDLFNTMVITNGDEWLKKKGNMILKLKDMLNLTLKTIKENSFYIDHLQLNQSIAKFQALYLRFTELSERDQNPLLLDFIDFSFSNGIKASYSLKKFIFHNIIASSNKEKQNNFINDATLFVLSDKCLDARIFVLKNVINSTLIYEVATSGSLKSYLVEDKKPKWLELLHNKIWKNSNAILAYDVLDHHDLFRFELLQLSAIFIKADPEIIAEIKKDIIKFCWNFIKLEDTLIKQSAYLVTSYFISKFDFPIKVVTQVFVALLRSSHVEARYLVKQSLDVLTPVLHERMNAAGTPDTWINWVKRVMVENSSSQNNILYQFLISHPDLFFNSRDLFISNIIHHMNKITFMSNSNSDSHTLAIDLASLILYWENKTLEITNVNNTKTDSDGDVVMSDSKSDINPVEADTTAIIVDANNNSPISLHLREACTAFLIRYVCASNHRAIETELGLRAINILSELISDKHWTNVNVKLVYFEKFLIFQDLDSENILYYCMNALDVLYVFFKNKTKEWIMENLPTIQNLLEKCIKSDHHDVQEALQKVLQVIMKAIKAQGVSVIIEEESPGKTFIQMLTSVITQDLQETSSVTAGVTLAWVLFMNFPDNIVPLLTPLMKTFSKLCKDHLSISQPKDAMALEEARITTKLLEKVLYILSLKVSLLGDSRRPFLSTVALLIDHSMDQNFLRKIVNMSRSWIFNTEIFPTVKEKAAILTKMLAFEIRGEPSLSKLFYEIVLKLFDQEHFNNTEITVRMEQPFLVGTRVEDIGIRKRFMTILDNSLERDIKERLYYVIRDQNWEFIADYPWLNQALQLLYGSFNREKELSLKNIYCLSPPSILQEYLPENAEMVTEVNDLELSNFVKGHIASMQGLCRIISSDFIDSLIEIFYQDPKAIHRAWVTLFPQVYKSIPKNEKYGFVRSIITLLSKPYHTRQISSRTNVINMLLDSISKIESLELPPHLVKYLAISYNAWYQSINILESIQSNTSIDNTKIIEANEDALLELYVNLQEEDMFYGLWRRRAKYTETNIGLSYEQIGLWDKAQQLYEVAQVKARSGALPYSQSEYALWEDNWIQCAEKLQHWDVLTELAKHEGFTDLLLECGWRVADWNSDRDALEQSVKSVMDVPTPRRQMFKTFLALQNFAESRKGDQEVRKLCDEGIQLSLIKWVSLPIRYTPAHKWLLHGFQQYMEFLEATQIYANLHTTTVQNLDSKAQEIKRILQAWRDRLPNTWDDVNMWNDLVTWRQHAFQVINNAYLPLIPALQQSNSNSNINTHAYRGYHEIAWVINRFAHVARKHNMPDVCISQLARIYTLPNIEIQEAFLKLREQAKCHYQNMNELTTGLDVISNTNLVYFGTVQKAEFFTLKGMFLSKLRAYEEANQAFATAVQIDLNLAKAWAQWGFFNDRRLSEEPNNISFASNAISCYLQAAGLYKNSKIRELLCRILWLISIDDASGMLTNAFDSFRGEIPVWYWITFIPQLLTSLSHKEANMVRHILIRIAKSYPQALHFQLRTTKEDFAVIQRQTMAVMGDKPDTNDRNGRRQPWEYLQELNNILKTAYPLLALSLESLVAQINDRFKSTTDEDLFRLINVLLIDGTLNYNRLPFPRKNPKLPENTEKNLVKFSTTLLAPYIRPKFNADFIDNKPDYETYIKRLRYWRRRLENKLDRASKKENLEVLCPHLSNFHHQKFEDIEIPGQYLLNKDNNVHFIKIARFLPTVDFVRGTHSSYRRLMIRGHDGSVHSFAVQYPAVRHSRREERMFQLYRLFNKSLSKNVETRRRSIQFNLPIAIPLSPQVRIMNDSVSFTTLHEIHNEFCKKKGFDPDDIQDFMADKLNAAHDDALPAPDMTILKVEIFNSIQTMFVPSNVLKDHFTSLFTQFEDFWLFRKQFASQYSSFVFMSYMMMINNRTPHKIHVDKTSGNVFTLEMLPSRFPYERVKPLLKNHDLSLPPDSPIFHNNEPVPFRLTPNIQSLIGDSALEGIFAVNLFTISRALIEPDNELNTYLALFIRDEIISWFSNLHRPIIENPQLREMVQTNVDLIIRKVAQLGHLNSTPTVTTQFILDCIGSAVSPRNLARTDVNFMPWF


Columns and labels:
[1] = target: T1, Sfp1-TAP fusion protein (S. cerevisiae (endogenous locus in yeast cells)); test: co-IP; TAP affinity purification of the tagged bait (Sfp1-TAP or Epl1-TAP) from yeast cells, co-purifying proteins detected by Western blot; mock purification from an untagged strain as negative control
[2] = target: T1, Sfp1-TAP fusion protein (S. cerevisiae (endogenous locus in yeast cells)); test: condition: only cells treated with rapamycin (200 ng/ml) for 2 h; co-IP; TAP affinity purification of Sfp1-TAP from yeast cells treated with rapamycin (200 ng/ml) for 2 h to inhibit the TOR kinase, Western blot of Esa1

Molecule | binding [1] | binding [2]
Tra1 (from UniProt P38811 1-3744) | binds | –
Eaf1 (protein, UniProt Q06337 1-982) MSSRPSSAVPNSASLSEDQSSDRSKFPKADDLIDERDRKLTELYCVSRLNQLLELTDENKLRKEIDAFLKKNDIRRGIRFDEASLPKLLHTAATPITKKKLKDVNLINVPNQRLSDSKMSRELPENSENVSVKSESHFVPSHDNSIRENMMDSLRPAEKTGGMWNKRPLESTMGGEEERHEKRQKMQSQSLESSNNSEMASLPISPRPPVPNALAHYTYYENIEYPPADPTEVQPAVKFKDPLIKNIMAKEIDTSDHYNENNVDALETVFLLMNDYIPSKIPQALPLAELKYMSQTLPLINLIPRAHKALTTNIINNALNEARITVVGSRIEELRRLGLWSLRQPKRFIDPWKQHNTHQNILLEEAKWMQADFKEGHKYKVAICTAMAQAIKDYWTYGEICCVKRKTLLPGKENKLSDDGRISEKSGRPSDTSRNDSDISIAGKDDIGIIANVDDITEKESAAANDNDENGKNEAGAKSDFDFADGLLSQEGAHDQIISSIDTKLLLKKPSSSSEVVLIQHEVAASSALIETEESKKELAPPFKLSIFVDELNTFEKTLIQDLPLYNGINEERPKKDDSLPFIPISKSVVSLDDNGFYKLLERQLIDEEPSISQLSKRRGMFYGNRRNHYLRPPAVPSLRYLQNRTPTIWLSEDDQELVKNINTYGYNWELISAHMTHRLTYSYLSNIERRTPWQCFERFVQLNERFNFSDLKGPRAHSAQQWLIEAHKFQQRQNRRISPLGVNTESIQRGHRRLRWASMFEAIRKCMKKRENTPRPNPTQPRKPLDCKNMKVPTPAEMSLLKAQRDEALRRDIQLRRTVKNRLQQRQQQSQQAHSSRAQSPIPSNGKSSSNLARNGQASAPRPNQKQYTEQDIIESYSRKLLEQKPDIGPEMALKAAKNYYRTLREQQQQLKQHQIQQQRQQLQEESSHVQQLQQLQPGSQAPPPKSSPSQSSLSNISNINSAPRIKSPTPQEILQRFQKQ | binds | –

Next, values leading:

binding [1] | binding [2] | Molecule
binds | – | Arp4 (protein, UniProt P80428 1-489) MSNAALQVYGGDEVSAVVIDPGSYTTNIGYSGSDFPQSILPSVYGKYTADEGNKKIFSEQSIGIPRKDYELKPIIENGLVIDWDTAQEQWQWALQNELYLNSNSGIPALLTEPVWNSTENRKKSLEVLLEGMQFEACYLAPTSTCVSFAAGRPNCLVVDIGHDTCSVSPIVDGMTLSKSTRRNFIAGKFINHLIKKALEPKEIIPLFAIKQRKPEFIKKTFDYEVDKSLYDYANNRGFFQECKETLCHICPTKTLEETKTELSSTAKRSIESPWNEEIVFDNETRYGFAEELFLPKEDDIPANWPRSNSGVVKTWRNDYVPLKRTKPSGVNKSDKKVTPTEEKEQEAVSKSTSPAANSADTPNETGKRPLEEEKPPKENNELIGLADLVYSSIMSSDVDLRATLAHNVVLTGGTSSIPGLSDRLMTELNKILPSLKFRILTTGHTIERQYQSWLGGSILTSLGTFHQLWVGKKEYEEVGVERLLNDRFR
binds | no binding | Esa1 (enzyme, UniProt Q08649 1-445) MSHDGKEEPGIAKKINSVDDIIIKCQCWVQKNDEERLAEILSINTRKAPPKFYVHYVNYNKRLDEWITTDRINLDKEVLYPKLKATDEDNKKQKKKKATNTSETPQDSLQDGVDGFSRENTDVMDLDNLNVQGIKDENISHEDEIKKLRTSGSMTQNPHEVARVRNLNRIIMGKYEIEPWYFSPYPIELTDEDFIYIDDFTLQYFGSKKQYERYRKKCTLRHPPGNEIYRDDYVSFFEIDGRKQRTWCRNLCLLSKLFLDHKTLYYDVDPFLFYCMTRRDELGHHLVGYFSKEKESADGYNVACILTLPQYQRMGYGKLLIEFSYELSKKENKVGSPEKPLSDLGLLSYRAYWSDTLITLLVEHQKEITIDEISSMTSMTTTDILHTAKTLNILRYYKGQHIIFLNEDILDRYNRLKAKKRRTIDPNRLIWKPPVFTASQLRFAW
